In all, about 270,000 compounds went through this assay and about 620 (0.23%) were called active. The inconclusive results got no clear call from the source; some entries with a clear call stand among them for comparison. The call rests on the fitted dose curve; in most records, active means well fitted inhibition curve with a large enough effect in the polarisation, with a control signal flat (not every such curve was filed as active); inconclusive means small, poorly fitted or top-dose-only effect, or effect the other way, or a change in a side signal; inactive means no such curve, though single readings can be large or run the other way; the % refers to the polarisation. Potencies beside an inconclusive call are fits to weak or partial responses and may not hold up. “Side channel” marks fits to a control or component signal instead of the main read-out.
These compounds were tested against Menin (Homo sapiens) (UniProt O00255) (assay: qHTS Assay for Inhibitors Targeting the Menin-MLL Interaction in MLL Related Leukemias: Competition With Texas Red Labeled MLL-derived Mutant Peptide). Settings: fluorescence polarization; series mostly up to 61.6 µM.
Sequence of UniProt O00255 (O00255 whole entry, looked up): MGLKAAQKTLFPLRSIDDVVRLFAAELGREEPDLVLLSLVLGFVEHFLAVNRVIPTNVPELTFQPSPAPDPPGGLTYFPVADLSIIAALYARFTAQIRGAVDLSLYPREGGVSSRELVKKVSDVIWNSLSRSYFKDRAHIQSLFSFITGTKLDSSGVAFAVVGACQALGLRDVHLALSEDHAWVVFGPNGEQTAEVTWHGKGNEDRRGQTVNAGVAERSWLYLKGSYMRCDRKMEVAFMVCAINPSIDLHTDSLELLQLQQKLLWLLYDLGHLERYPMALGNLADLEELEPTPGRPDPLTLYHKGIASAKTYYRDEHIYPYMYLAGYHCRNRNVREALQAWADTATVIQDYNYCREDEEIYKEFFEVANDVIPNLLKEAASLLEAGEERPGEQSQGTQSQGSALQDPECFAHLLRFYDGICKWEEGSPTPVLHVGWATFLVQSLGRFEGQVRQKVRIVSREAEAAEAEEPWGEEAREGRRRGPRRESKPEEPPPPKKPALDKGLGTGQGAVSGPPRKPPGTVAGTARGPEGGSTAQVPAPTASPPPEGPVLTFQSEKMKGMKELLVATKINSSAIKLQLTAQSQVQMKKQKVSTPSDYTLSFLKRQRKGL
`CCOC(=O)/C(=N\Nc1ccccc1)c1csc(Nc2ccc(C)cc2)n1` was tested, and the Potency was inconclusive: 8.91 µM [quencher, side channel, partial curve].
With `O=C(CC(O)(C(F)(F)F)C(F)(F)F)Nc1ccc(Cl)c(Cl)c1` the Potency was inconclusive: 25.1 µM [quencher, side channel, single point].
For `CN(Cc1cccnc1)C(=O)CC1C(=O)NCCN1CC(c1ccccc1)c1ccccc1` (configuration not stated), the Potency was inconclusive: 39.8 µM [fluorescent, side channel, single point].
`CN1C=CC=C/C1=C1\SC(=S)N(Cc2ccccc2)C1=O` was tested, and the Potency was inconclusive: 12.6 µM [quencher, side channel, partial curve, poor fit].
With `O=c1cc(CSc2nnnn2-c2ccccc2)nc2nc[nH]n12` the Potency was inconclusive: 39.8 µM [inhibitor, partial curve].
For `Oc1ccccc1Cn1c(-c2ccccc2O)nc2ccccc21`, the Potency was inconclusive: 15.8 µM [quencher, side channel, partial curve].
With `COc1ccc(C2C(C#N)=C(N)Oc3cc4c(cc32)OCO4)cc1` (configuration not stated) the Potency was “inactive”.
With `CN1CCC(NCCC(c2ccc(F)cc2)c2ccc(Cl)cc2)CC1` (configuration not stated) the Potency was inconclusive: 25.1 µM [fluorescent, side channel, partial curve].
For `COc1ccc(CCn2c(=N)c(C(=O)NCc3ccco3)cc3c(=O)n4ccccc4nc32)cc1`, the Potency was “inactive”.
For `C=CCSc1nnc(-c2cc3c(-c4ccccc4)nn(C)c3s2)n1C`, the Potency was inconclusive: 15.8 µM [inhibitor, single point].
In the case of `CSCC[C@H](N)C(=O)N[C@@H](CCCN=C(N)N)C(=O)N[C@@H](CC(C)C)C(=O)N[C@@H](Cc1ccccc1)C(=O)N[C@H](C(=O)O)C(C)C`, the Potency is reported as “inactive”.
With `Oc1ccc(-c2nc3c4c(ncn3n2)-c2ccccc2CC42CCCC2)cc1` the Potency was inconclusive: 8.91 µM [quencher, side channel, partial curve].
With `Cc1ccc(S(=O)(=O)N2CCN(c3nc(C)nc4sc5c(c34)CCC(C)C5)CC2)cc1` (configuration not stated) the Potency was inconclusive: 11.2 µM [inhibitor, partial curve].
With `Cc1nc2nc(SCC(=O)c3ccc([N+](=O)[O-])cc3)[nH]c2cc1Br` the Potency was inconclusive: 35.5 µM [quencher, side channel, single point].
For `CCC(=O)NC(c1cccs1)c1cc([N+](=O)[O-])c2cccnc2c1O` (configuration not stated), the Potency was “inactive”.
`Cn1cccc1/C=N/NC(=O)c1cc2ccccc2cc1O` was tested, and the Potency was inconclusive: 20 µM [quencher, side channel, partial curve].
With `Cc1cccc2cc(C(c3nnnn3C(C)(C)C)N(Cc3ccco3)CC3CCCO3)c(=O)[nH]c12` (configuration not stated) the Potency was inconclusive: 14.1 µM [fluorescent, side channel, partial curve].
For `Cc1cc(C)c2oc(C(=O)N3CCN(Cc4ccccc4)CC3)cc(=O)c2c1`, the Potency was inconclusive: 17.8 µM [fluorescent, side channel, partial curve].
With `COc1ccccc1N=Nc1ccc(O)c2ncccc12` the Potency was inconclusive: 12.6 µM [quencher, side channel, partial curve].
For `Cc1cc2nc(-c3ccc(=O)[nH]c3)n(C)c2cc1C`, the Potency was inconclusive: 0.631 µM [inhibitor, full curve, poor fit].
For `O=C(Nc1nccs1)c1ccc(Cl)s1`, the Potency was inconclusive: 12.6 µM [quencher, side channel, partial curve].
With `Fc1ccc(Oc2cnc3ccccc3n2)cc1` the Potency was inconclusive: 10 µM [inhibitor, single point].
In the case of `CCCn1c(N)c(C(=O)CSc2nc3ccccc3c(=O)n2-c2ccc(OC)cc2)c(=O)[nH]c1=O`, the Potency is reported as inconclusive: 5.01 µM [inhibitor, single point].
For `c1ccc2c(c1)oc1c(Nc3ccc4c(c3)OCO4)ncnc12`, the Potency was inconclusive: 10 µM [quencher, side channel, partial curve].
In the case of `CCSc1nnc(NC(=O)c2cccc(S(=O)(=O)N(C)c3ccccc3)c2)s1`, the Potency is reported as inconclusive: 25.1 µM [quencher, side channel, partial curve].
With `Cc1ccc(-c2nc3ncccc3o2)cc1NC(=O)c1cccnc1` the Potency was inconclusive: 14.1 µM [fluorescent, side channel, partial curve, poor fit].
In the case of `CCCCOC(=O)CSc1nc(N)c(C#N)c(-c2ccc(OCC)cc2)c1C#N`, the Potency is reported as inconclusive: 39.8 µM [fluorescent, side channel, single point].
With `Cc1cc(C)nc(SC2c3cccc4cccc(c34)C2NS(=O)(=O)c2ccccc2)n1` (configuration not stated) the Potency was inconclusive: 20 µM [fluorescent, side channel, single point].
For `COC(=O)c1cc(C(=O)OC)cc(N2C(=O)CN=C2Nc2nc(C)cc(C)n2)c1`, the Potency was inconclusive: 22.4 µM [inhibitor, partial curve, poor fit].
For `CC(=O)Nc1ccc(NC(=O)C2CC(=O)N(c3cccc(Cl)c3)C2)cc1` (configuration not stated), the Potency was inconclusive: 39.8 µM [fluorescent, single point].
For `O=C(O)CCc1ccc(-c2ccc(Br)cc2)n1CC(=O)O`, the Potency was “inactive”.
For `CC1CCN(CCCn2c(SCC(=O)Nc3ccccc3Cl)nc3ccccc3c2=O)CC1`, the Potency was inconclusive: 6.31 µM [fluorescent, side channel, full curve, poor fit].
With `O=C(C1CC(c2ccccc2O)=NO1)N1CCCC1` (configuration not stated) the Potency was inconclusive: 1.78 µM [inhibitor, partial curve, poor fit].
`COc1ccc(CNC(=O)C2CCC(CNS(=O)(=O)c3ccc(C)cc3)CC2)cc1` (configuration not stated) was tested, and the Potency was inconclusive: 28.2 µM [fluorescent, side channel, single point].
In the case of `CCOc1ccc(NC(=O)CC2SC(N)=NC2=O)c([N+](=O)[O-])c1` (configuration not stated), the Potency is reported as inconclusive: 4.47 µM [inhibitor, full curve, poor fit].
`O=C(Nc1ccc(N2C(=O)C3C4C=CC(C4)C3C2=O)cc1)Nc1nnc(C(F)(F)F)s1` (configuration not stated) was tested, and the Potency was inconclusive: 12.6 µM [quencher, side channel, partial curve].
With `COc1ccc(S(=O)(=O)Nc2nnc(Cc3ccc(OC)c(OC)c3)s2)cc1` the Potency was inconclusive: 14.1 µM [quencher, side channel, partial curve].
`COc1cc(OC)c(C(=O)NC23CC4CC(CC(C4)C2)C3)cc1OC` was tested, and the Potency was inconclusive: 12.6 µM [inhibitor, partial curve].
`CCOC(=O)c1cnc2nc(C)[nH]n2c1=O` was tested, and the Potency was inconclusive: 39.8 µM [inhibitor, single point].
`O=C(Nc1ccccc1C(=O)Nc1ccc2c(c1)OCO2)c1cccs1` was tested, and the Potency was inconclusive: 14.1 µM [quencher, side channel, partial curve].
With `COc1ccccc1C1CCN(C(=O)c2ccccc2)CC1` the Potency was inconclusive: 20 µM [fluorescent, side channel, partial curve].
For `O=C(/C=C/c1ccccc1)CC(=O)c1ccccc1O`, the Potency was inconclusive: 17.8 µM [quencher, side channel, partial curve].
In the case of `Cc1ccc([N+](=O)[O-])cc1NC(=O)C(Sc1ccccc1)c1ccccc1` (configuration not stated), the Potency is reported as inconclusive: 12.6 µM [quencher, side channel, partial curve].
For `COc1cc(/C=N/Nc2ccc(C)cc2)cc(Br)c1O`, the Potency was inconclusive: 17.8 µM [quencher, partial curve].
In the case of `O=C(Nc1ccc(-c2nc3cccnc3s2)cc1)c1ccco1`, the Potency is reported as inconclusive: 20 µM [quencher, side channel, single point].
`Cc1ccc(NC(=O)COC(=O)CNC(=O)c2cccc([N+](=O)[O-])c2)cc1S(=O)(=O)N1CCCCCC1` was tested, and the Potency was inconclusive: 35.5 µM [quencher, side channel, single point].
`COc1ccc(/C=C2\SC(N)=NC2=O)cc1Cl` was tested, and the Potency was inconclusive: 35.5 µM [inhibitor, single point].
`CCc1ccc2oc(-c3cc(N)cc(C)c3O)nc2c1` was tested, and the Potency was inconclusive: 11.2 µM [quencher, side channel, partial curve].
With `CCN1C(=O)C(=Cc2cccc(OC)c2Oc2ccc([N+](=O)[O-])cc2[N+](=O)[O-])SC1=S` the Potency was inconclusive: 10 µM [quencher, side channel, partial curve].
With `COc1cccc(/C=N/Nc2cc(-n3nc(C)cc3-c3ccccc3)ncn2)c1O` the Potency was inconclusive: 25.1 µM [quencher, side channel, partial curve].
For `COc1ccccc1/C=N/NC(=O)CC(=O)NCc1ccccc1`, the Potency was inconclusive: 28.2 µM [fluorescent, side channel, single point].
`O=C(Nc1ccc(OC(=O)c2cccs2)cc1)c1ccco1` was tested, and the Potency was inconclusive: 22.4 µM [inhibitor, single point].
For `CCNC(=S)N=Nc1c(O)[nH]c2ccc([N+](=O)[O-])cc12`, the Potency was inconclusive: 17.8 µM [quencher, side channel, partial curve].
`Cc1cccc2cc(CN(Cc3ccco3)C(=O)c3ccco3)c(=O)[nH]c12` was tested, and the Potency was inconclusive: 25.1 µM [inhibitor, partial curve].
With `COc1cc(/C=C2\SC(=O)NC2=O)ccc1OCc1ccc(Cl)nc1` the Potency was “inactive”.
For `CC1=CC(C)(C)N=C(NC#N)N1`, the Potency was inconclusive: 7.08 µM [inhibitor, single point].
With `Cc1cc2oc(=O)cc(-c3cc4ccccc4o3)c2cc1O` the Potency was inconclusive: 11.2 µM [quencher, side channel, partial curve].

From PubChem BioAssay AID1768 (National Center for Advancing Translational Sciences (NCATS), 2009)
Potency means the concentration at half of the fitted maximal effect; tags describe the fitted curve by direction and shape or compound fluorescence and quenching.
